# Literature values in publication PMC11006913.
# Substitutions are numbered along the chain they refer to. Some of the results follow.
# Key:
# Settings in all cases: PBM; conditions not shown; double strand, one strand shown; scale: upbm affinity estimate (log intensity, higher = more binding, comparable within an allelic series)
# [1] = target: NKX2-5 R161P (Homo sapiens) (UniProt P52952)
# [2] = target: NKX2-5 R190C (Homo sapiens) (UniProt P52952)
# [3] = target: NKX2-5 K183E (Homo sapiens) (UniProt P52952)
# [4] = target: PROP1 R112Q (Homo sapiens) (UniProt O75360)
# UniProt O75360, sequence (O75360 56-141 R112Q): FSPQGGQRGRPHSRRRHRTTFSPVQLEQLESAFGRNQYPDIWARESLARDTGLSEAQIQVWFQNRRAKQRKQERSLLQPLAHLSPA
# [5] = target: T1, PBX4 (Homo sapiens) (UniProt Q9BYU1)
# T1 sequence: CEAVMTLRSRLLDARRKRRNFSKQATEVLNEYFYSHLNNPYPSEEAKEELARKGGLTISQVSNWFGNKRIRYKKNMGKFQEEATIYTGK
# [6] = target: T2, PBX4 R215Q (Homo sapiens) (UniProt Q9BYU1)
# T2 sequence: T1 sequence with R19Q
sequence,measurement,setting,value
ATACTTAC [8-mer ATACTTAC],binding signal,[1],12
same,binding signal,[2],11
AGTGTCTG [8-mer AGTGTCTG],binding signal,[3],10.8
same,binding signal,[2],10.7
ACAATTGA [8-mer ACAATTGA],binding signal,[1],11.9
same,binding signal,[2],11.1
same,binding signal,[4],12.3
CAAGTGTC [8-mer CAAGTGTC],binding signal,[1],12.4
AAGAGAGC [8-mer AAGAGAGC],binding signal,[2],10.3
ATAAGATG [8-mer ATAAGATG],binding signal,[1],11.4
same,binding signal,[2],10.9
CCAAGAGG [8-mer CCAAGAGG],binding signal,[2],10.3
GCCTCTTA [8-mer GCCTCTTA],binding signal,[2],10.3
GGCACTCA [8-mer GGCACTCA],binding signal,[2],10.4
ACACTTTC [8-mer ACACTTTC],binding signal,[3],10.9
same,binding signal,[2],10.7
AAGAGGGG [8-mer AAGAGGGG],binding signal,[2],10.2
CCACTAAA [8-mer CCACTAAA],binding signal,[2],10.4
AAGTGCCA [8-mer AAGTGCCA],binding signal,[1],12.5
AGAGTGGG [8-mer AGAGTGGG],binding signal,[2],10.4
CAAGTGCC [8-mer CAAGTGCC],binding signal,[2],10.3
CCTCTCAG [8-mer CCTCTCAG],binding signal,[2],10.2
ACAAGTGC [8-mer ACAAGTGC],binding signal,[1],12.5
CCTCTCGA [8-mer CCTCTCGA],binding signal,[2],10.3
GCCCTTCA [8-mer GCCCTTCA],binding signal,[2],10.4
AAGTGCTC [8-mer AAGTGCTC],binding signal,[1],12.4
GCCCTTAA [8-mer GCCCTTAA],binding signal,[2],10.4
CAAGTGCG [8-mer CAAGTGCG],binding signal,[1],12.5
ATGAGAGG [8-mer ATGAGAGG],binding signal,[2],10.4
CAAGGGCC [8-mer CAAGGGCC],binding signal,[3],10.5
same,binding signal,[2],10.1
CTTAATAC [8-mer CTTAATAC],binding signal,[2],10.9
TCTTAACA [8-mer TCTTAACA],binding signal,[3],11.1
same,binding signal,[2],10.9
GCTCTTCA [8-mer GCTCTTCA],binding signal,[3],10.7
same,binding signal,[2],10.4
AAGTGCCT [8-mer AAGTGCCT],binding signal,[1],12.4
AAGAGGGC [8-mer AAGAGGGC],binding signal,[2],10.3
GCACTTTA [8-mer GCACTTTA],binding signal,[1],12.4
AAGTGCAC [8-mer AAGTGCAC],binding signal,[1],12.5
CCAAGTAG [8-mer CCAAGTAG],binding signal,[2],10.4
CCACTCTC [8-mer CCACTCTC],binding signal,[2],10.3
GTATCGGA [8-mer GTATCGGA],binding signal,[5],10
same,binding signal,[6],9.98
CTCCTTTA [8-mer CTCCTTTA],binding signal,[5],9.89
same,binding signal,[6],9.88
CCCCTTAA [8-mer CCCCTTAA],binding signal,[2],10.4
CCACTAGA [8-mer CCACTAGA],binding signal,[2],10.4
CACTCACG [8-mer CACTCACG],binding signal,[2],10.4
ACAAGGGG [8-mer ACAAGGGG],binding signal,[2],10.3
TCCGCAGA [8-mer TCCGCAGA],binding signal,[5],9.88
same,binding signal,[6],9.83
TAGTCTAA [8-mer TAGTCTAA],binding signal,[5],10
same,binding signal,[6],10
ACCCTCTC [8-mer ACCCTCTC],binding signal,[2],10.2
CGAGTGGC [8-mer CGAGTGGC],binding signal,[2],10.2
GCCCTTGA [8-mer GCCCTTGA],binding signal,[2],10.4
ACCAGTTC [8-mer ACCAGTTC],binding signal,[5],9.89
same,binding signal,[6],9.83
GCTAGCAA [8-mer GCTAGCAA],binding signal,[5],9.96
same,binding signal,[6],9.87
CATCCGAC [8-mer CATCCGAC],binding signal,[5],9.99
same,binding signal,[6],9.85
GCCGTTAC [8-mer GCCGTTAC],binding signal,[5],9.98
same,binding signal,[6],9.83
GAGTGGCC [8-mer GAGTGGCC],binding signal,[2],10.3
GTTGACGA [8-mer GTTGACGA],binding signal,[5],10.7
same,binding signal,[6],10.1
ACCCTCGA [8-mer ACCCTCGA],binding signal,[2],10.4
ACTGGCTC [8-mer ACTGGCTC],binding signal,[5],9.91
same,binding signal,[6],9.85
AGAGCCAG [8-mer AGAGCCAG],binding signal,[5],9.81
same,binding signal,[6],9.81
AGAGTGGC [8-mer AGAGTGGC],binding signal,[2],10.4
GACCCTTA [8-mer GACCCTTA],binding signal,[2],10.4
CCGCCCAG [8-mer CCGCCCAG],binding signal,[5],9.69
same,binding signal,[6],9.71
CCTCTTAC [8-mer CCTCTTAC],binding signal,[2],10.4
CGGCCATC [8-mer CGGCCATC],binding signal,[5],9.94
same,binding signal,[6],9.79
ACCTATTA [8-mer ACCTATTA],binding signal,[2],10.9
CCCTCTCA [8-mer CCCTCTCA],binding signal,[2],10.3
ATGATGAG [8-mer ATGATGAG],binding signal,[5],10.6
same,binding signal,[6],10.1
CCATTATA [8-mer CCATTATA],binding signal,[2],10.9
ATCATCAT [8-mer ATCATCAT],binding signal,[5],10.6
same,binding signal,[6],10.3
AACCTGGG [8-mer AACCTGGG],binding signal,[5],9.71
same,binding signal,[6],9.75
GCCCCTTA [8-mer GCCCCTTA],binding signal,[2],10.3
AGGGTTTC [8-mer AGGGTTTC],binding signal,[5],9.99
same,binding signal,[6],9.98
ATTCGTCA [8-mer ATTCGTCA],binding signal,[5],10.9
same,binding signal,[6],10.2
GCTCGTCA [8-mer GCTCGTCA],binding signal,[5],11
same,binding signal,[6],10.1
CCCCTTAG [8-mer CCCCTTAG],binding signal,[2],10.1
